We go through 83 variants from the RNAGym collection of RNA variant scans (doi:10.1093/nar/gkz1192).

First the molecules themselves.
B1: CPEB3 Ribozyme (parent)
chain: UAACAGGGGGCCACAGCAGAAGCGUUCACGUCGCAGCCCCUGUCAGAUUCUGGUGAAUCUGCGAAUUCUGCUGUAUAUCUC

The source gives no read counts; variants with many changes may rest on few reads.

Variants of B1 are the subject of the data set. Description: self-cleavage, relative activity (ratio to wild type); higher = more cleavage; in vitro, sequencing. The method in brief:
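Barcoded CPEB3 ribozyme mutants, produced by rounds of error-prone PCR, self-cleaved while being transcribed with T7 RNA polymerase for 5 hours at 37°C and during a subsequent 15 min DNase I step before EDTA was added. Sequencing of template-switched cDNA on Illumina gave cleaved and total reads, and DNA sequencing assigned barcodes to variants. Each variant's relative activity is its cleaved/total read fraction divided by the unmutated ribozyme's fraction, averaged across three batches. A variant needed a minimum of 5 reads.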
Take G6C U26C U67C U69C U80C: the self-cleavage is 0.26. In the case of G7A A21G G33A U49C it was 0.16; in that of G6C U25C U54C U67C G73A, 0.04; in that of G6C C38U U54C, 0.09. As for G6U A15G U60C, the figure is 0.39. As for G7A A47G U58C A65U, the figure is 0.08; as for G6U A15U C62U U72C, 0.05; as for G6U A20C C62A, 0.23. Consider G6C A18G G70A, for which the self-cleavage stood at 0.09. Regarding G6C U31A U41G U67C, the self-cleavage was 0.2.

Take G7A A21G U60A A64U U72A U78C: the self-cleavage turned out to be 0.04. In the case of G6C C68A U74C it was 0.05. As for G6C U41C U51A U67C, the self-cleavage was determined as 0.33. As for G6C A20C A21G U25C A45G A56G U78C, the figure is 0.42. In the case of G6U U25C U41A A56G A57G it was 0.09; in that of G7A A15U C23U U26C C38U, 0.05; in that of G6U A18C U41A A65G A77G, 0.16. With G6U A21G C40U, the self-cleavage was determined as 0.07. In the case of G6U U43C A45G A64G, the self-cleavage was 0.04.

For G6U G7U A15U A18G A20G G24C G33C, the self-cleavage is 0.29. Regarding G6U A18G A28G A57C U78G, the self-cleavage stood at 0.08. For G6U A18G G52A G63U U66A, the self-cleavage is 0.06. As for G6U A18G A35U U48C A64G A75G, the figure is 0.05; as for G7A A21G A35G U58A G63U U66C, 0.12; as for G6A U51A U80C, 0.39. In the case of G6U G9A U51A A57G A64U A77G it was 0.05; in that of G7A A13U A21G U49C U54A U76A, 0.02.

On to G6U C11A U48C A64G U66C U72C U78C, for which the self-cleavage came out at 0.07.

For the variant G6A U51A U72C U76C, the self-cleavage was determined as 0.12. In the case of G6C G7A A15G A57G U67C A77U it was 0.16. As for G7A A20G G36U U41A A45G A47G U69C, the figure is 0.05. Consider G6A U66C U67C U74A, for which the self-cleavage is 0.79.

Take G7A A20C A21G A28G G33C U43C A56U: the self-cleavage was found to be 0.17. In the case of G6C U31A A35G U41G U66C U67C it was 0.15.

Turning to G7A A21G U66C, the self-cleavage came out at 0.22. Take G7A A21G U80A: the self-cleavage was 0.32.

Take G6U U43C U49C A75U: the self-cleavage was found to be 0.08.

Regarding G6U A18U C62A U78C U80C, the self-cleavage turned out to be 0.15. With G6A U60C U72C, the self-cleavage was found to be 0.18. Consider G6A U51C U67C, for which the self-cleavage came out at 0.09. As for G7A A45G U60C U69A, the figure is 0.05; as for G6C A15G C40U, 0.54. In the case of G6U A13U A21G it was 0.06; in that of G6U U51C U60G C62A U78A, 0.06. As for G7A C11U G36A U51C A64G U67C, the figure is 0.03.

G6U A47G C62A: the self-cleavage came to 0.2. In the case of G7A A20G A28U A77G it was 0.13; in that of G6A U51C C59G C62U, 0.07. For the variant G6U A18C U51A G52U, the self-cleavage was found to be 0.23. Consider G6U A20G A56U U69A G70A G73A, for which the self-cleavage came out at 0. Consider G6U A21G A35G A45G U54C, for which the self-cleavage is 0.22.

In the case of G7A A35U U41A A65G, the self-cleavage came to 0.08. As for G6U A21G U31C U51C A65G, the figure is 0.14; as for G6U U54C A57U U60C U69C, 0.12.

Regarding G6U U49C A65U A77G, the self-cleavage came to 0.14. In the case of G6U C29U U41A U43C U60C it was 0.05; in that of G6C G8U A20G A35U U43C U58C U66A, 0.25. In the case of G6U A13U C23G U54C, the self-cleavage is 0.09. For G6U G30A C38A, the self-cleavage was 0.07. As for G7A A35G U60A U67A U78C, the figure is 0.11. As for G6A U54C A64U U69C, the figure is 0.12; as for G7A A15G A75U, 0.07; as for G6U U60C U80C, 0.22. In the case of G6C U41C U54A it was 0.17; in that of G6U A20U U26C U51A A56C U67C U80A, 0.22. Take G6A U69G A77G: the self-cleavage amounted to 0.08. In the case of G7A A18G U26C U78C, the self-cleavage stood at 0.05. Turning to G6U C12U A28U U60C, the self-cleavage amounted to 0.11.

G7A A18U U51A U69C: the self-cleavage turned out to be 0.06. In the case of G6A U72A U78C it was 0.35; in that of G6C U41C A57G C59G A64G, 0.05. Regarding G7A A20G A21G A77G, the self-cleavage was 0.06. In the case of G6C A20G U26C G33A U51C A57U C81U it was 0.23. As for G7A A18G G42A, the figure is 0.11; as for G7A A15G U26C U51C U58A, 0.06; as for G7A A21G U54G A64G A75G, 0.03. Take G7A A21G U26C U72C: the self-cleavage came out at 0.05. As for G7A A18G U31A G42C G63A C68A U69A, the figure is 0.03; as for G6U U58C U78C, 0.16. For the variant G6U C11G U26C U41C U74C, the self-cleavage was 0.99. For G7A A57G U78C U80C, the self-cleavage was determined as 0.13. As for G6C U26G U51A, the self-cleavage is 0.06. As for G6U A20C A35U U41A C44U A64G A75U, the figure is 0.04.
